Experimental data from the antibiotic and cytotoxicity screens of Wong et al. (2023).
The list shows a part of the results.

Tested on: S. aureus RN4220
Experiment: growth inhibition call (relative growth <= 0.2)
Conditions: 50 µM

Growth inhibition call, inactive:
COc1ccc(CN(C)C[C@@H]2OCCCC[C@@H](C)Oc3ccc(NC(=O)c4ccccc4)cc3C(=O)N([C@H](C)CO)C[C@@H]2C)cc1
C[C@@H]1CN([C@@H](C)CO)C(=O)c2cccc(NC(=O)NC3CCCCC3)c2O[C@@H]1CN(C)C(=O)Nc1cccc2ccccc12
COc1ccc(NC(=O)Nc2ccc3c(c2)C(=O)N([C@H](C)CO)C[C@@H](C)[C@@H](CN(C)C(=O)Nc2ccc(OC)cc2)OCCCC[C@@H](C)O3)cc1
COc1ccc(NC(=O)N(C)C[C@@H]2OCCCC[C@H](C)Oc3ccc(NC(=O)Cc4ccccc4)cc3C(=O)N([C@@H](C)CO)C[C@@H]2C)cc1
CC=Cc1ccc2n(c1=O)C[C@@H]1[C@@H](CO)[C@H](C(=O)NC3CCC3)N(S(C)(=O)=O)[C@H]21
Cc1ccc(OC(=O)n2c3ccccc3c3ccccc32)cc1
C[C@@H]1CN([C@@H](C)CO)S(=O)(=O)c2ccc(C#CC(C)(C)O)cc2O[C@H]1CN(C)Cc1ccncc1
C[C@@H]1CN([C@H](C)CO)C(=O)Cc2cc(NC(=O)CCN3CCOCC3)ccc2O[C@H]1CN(C)C(=O)Nc1ccc(F)cc1
Cc1noc(C)c1S(=O)(=O)Nc1ccc2c(c1)C(=O)N([C@H](C)CO)C[C@@H](C)[C@@H](CN(C)CC1CCCCC1)OCCCC[C@H](C)O2
CCS(=O)(=O)Nc1ccc2c(c1)C(=O)N(C)[C@H]1CC[C@H](CC(=O)Nc3ccccc3C)O[C@@H]1CO2
C[C@H](CO)N1C[C@H](C)[C@@H](CN(C)Cc2ccc(Cl)c(Cl)c2)OCCCC[C@H](C)Oc2ccc(NC(=O)Nc3ccc4c(c3)OCO4)cc2C1=O
COCC(=O)Nc1ccc2c(c1)OC[C@H](C)N(C(=O)Cc1cccnc1)C[C@@H](C)[C@@H](OC)CN(C)C2=O
C[C@H]1CN([C@@H](C)CO)C(=O)c2cccc(NC(=O)CCCCCC(=O)Nc3ccccc3N)c2O[C@@H]1CN(C)CC1CCCCC1
CO[C@@H]1CN(C)C(=O)c2ccc(NC(=O)c3ccccc3)cc2OC[C@@H](C)N(C(=O)CN(C)C)C[C@@H]1C
Cc1noc(C)c1NC(=O)N(C)C[C@H]1OCCCC[C@H](C)Oc2ccc(NC(=O)C3CCCCC3)cc2C(=O)N([C@@H](C)CO)C[C@@H]1C
C[C@@H]1CN([C@@H](C)CO)C(=O)Cc2cc(NC(=O)Nc3ccc(C(F)(F)F)cc3)ccc2O[C@@H]1CN(C)CC1CCCCC1
NCC[C@H]1CC[C@@H](NC(=O)C2CCC2)[C@@H](CO)O1
COc1ccc(NC(=O)Nc2ccc3c(c2)C(=O)N([C@@H](C)CO)C[C@@H](C)[C@H](CN(C)Cc2ccc(C(=O)O)cc2)OCCCC[C@H](C)O3)cc1
C=CCC[C@@H](Cc1ccc(F)cc1)C(=O)OC[C@H]1CCCN1C(=O)[C@@H](CC=C)CC(=O)N(CCO)Cc1ccccc1
C[C@@H]1CN([C@@H](C)CO)C(=O)c2cc(NC(=O)C3CCCCC3)ccc2O[C@@H](C)CCCCO[C@H]1CN(C)Cc1ccccc1
C[C@@H]1CCCCO[C@@H](CN(C)Cc2ccc(C(F)(F)F)cc2)[C@H](C)CN([C@H](C)CO)C(=O)c2cc(NC(=O)Nc3ccc(F)cc3)ccc2O1
O=C(C[C@H]1CC[C@@H]2[C@H](COC[C@H](O)CN2C(=O)Nc2ccc(Cl)cc2)O1)NCCc1ccncc1
C[C@@H]1CN([C@@H](C)CO)C(=O)c2cc(/C=C/c3ccccc3)cnc2O[C@@H]1CN(C)C(=O)Nc1ccc(C(F)(F)F)cc1
C[C@H]1CN([C@@H](C)CO)S(=O)(=O)c2ccc(-c3cncnc3)cc2O[C@@H]1CN(C)C(=O)c1cccc(F)c1
C[C@H]1CN([C@@H](C)CO)C(=O)c2cccc(NS(C)(=O)=O)c2O[C@H]1CN(C)Cc1ccc(C(=O)O)cc1
COc1cc(OC)c2c(OC)c(-c3ccc4c(c3)OCO4)c(=O)oc2c1
O=S(=O)(Cc1ccccc1)Nn1cnnc1
COCC(=O)N1C[C@@H](C)[C@H](OC)CN(C)C(=O)c2cc(NC(=O)c3ccc(F)cc3)ccc2OC[C@H]1C
CN[C@@H]1[C@H](O[C@H]2[C@H](O[C@H]3[C@H](O)[C@@H](O)[C@H](NC(=N)N)[C@@H](O)[C@@H]3NC(=N)N)O[C@@H](C)[C@]2(O)C=O)O[C@@H](CO)[C@H](O)[C@H]1O
N[C@@H](Cc1ccc(O)c(O)c1)C(=O)O
Oc1ccc(Cl)c2c1CCC2
CN(C)C(=O)CN1CCCN(CCn2nc3ccccn3c2=O)CC1
Cc1ccc(S(=O)(=O)Nc2ccc3c(c2)CC(=O)N([C@@H](C)CO)C[C@H](C)[C@@H](CN(C)Cc2ccc(C(F)(F)F)cc2)O3)cc1
COc1cccc(S(=O)(=O)N(C)C[C@@H]2OCc3cn(nn3)CCCC(=O)N([C@@H](C)CO)C[C@H]2C)c1
C[C@H](CO)N1C[C@H](C)[C@H](CN(C)C(=O)Nc2cccc(C(F)(F)F)c2)OCc2ccccc2-c2c(n(C)c3ccccc23)C1=O
Cc1ccc(S(=O)(=O)Nc2cccc3c2O[C@@H](CN(C)S(=O)(=O)c2cn(C)cn2)[C@H](C)CN([C@H](C)CO)C3=O)cc1
O=C(C[C@H]1C=C[C@@H](NS(=O)(=O)c2ccccc2)[C@@H](CO)O1)NCc1ccncn1
C[C@H](CO)N1C[C@H](C)[C@H](CN(C)S(C)(=O)=O)Oc2ccc(NC(=O)C3CCCCC3)cc2CC1=O
CCCNC(=O)N(C)C[C@H]1Oc2cc(-c3ccccc3F)ccc2S(=O)(=O)N([C@H](C)CO)C[C@@H]1C
